# Test results: the supplement of paper PMC8728848
# This is one part of the list.
# Legend:
# Experiment in all cases: glycan array binding signal (z-score within array); higher = stronger binding
# Conditions in all cases: glycan notation: IUPAC condensed, linker removed
# [1] = target: Neu5Ac(a2-8)Neu5Ac(a2-8)Neu5Ac
# Outline: (§1)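 Columns mapping to the same glycan were averaged after glycan names were converted to IUPAC-condensed notation. The data come from 3228 arrays in the Consortium for Functional Glycomics database, limited to those with an available protein sequence. Binding is reported as a within-array Z-score averaged across arrays of one protein sequence and across linkers.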
# [2] = target: Neu5Ac(a2-8)Neu5Ac(a2-8)Neu5Ac(a2-3)Gal(b1-4)Glc
# Outline: as §1
# [3] = target: Neu5Ac(a2-8)Neu5Ac(a2-8)Neu5Ac(a2-3)[Gal(b1-3)GalNAc(b1-4)]Gal(b1-4)Glc
# Outline: as §1
# [4] = target: Neu5Ac(a2-8)Neu5Ac(a2-8)Neu5Ac(a2-3)[GalNAc(b1-4)]Gal(b1-4)Glc
# Outline: as §1
# [5] = target: Neu5Ac(a2-8)Neu5Ac(a2-8)Neu5Ac(a2-8)Neu5Ac(a2-3)[GalNAc(b1-4)]Gal(b1-4)Glc
# Outline: as §1
# [6] = target: Neu5Ac(a2-8)Neu5Gc(a2-3)Gal(b1-4)GlcNAc
# Outline: as §1
# [7] = target: Neu5Ac(b2-6)Gal(b1-4)GlcNAc
# Outline: as §1
# Neu5Ac(b2-6)GalNAc = target: Neu5Ac(b2-6)GalNAc
# Outline: as §1
# [8] = target: Neu5Ac9Ac(a2-3)Gal(b1-3)GlcNAc
# Outline: as §1
# [9] = target: Neu5Ac9Ac(a2-3)Gal(b1-4)GlcNAc
# Outline: as §1
# [10] = target: Neu5Ac9Ac(a2-6)Gal(b1-4)GlcNAc
# Outline: as §1
# [11] = target: Neu5Gc(a2-3)Gal(b1-3)GlcNAc
# Outline: as §1
# [12] = target: Neu5Gc(a2-3)Gal(b1-3)[Fuc(a1-4)]GlcNAc
# Outline: as §1
# Neu5Gc(a2-3)Gal(b1-4)Glc = target: Neu5Gc(a2-3)Gal(b1-4)Glc
# Outline: as §1
# [13] = target: Neu5Gc(a2-3)Gal(b1-4)GlcNAc
# Outline: as §1
# [14] = target: Neu5Gc(a2-3)Gal(b1-4)GlcNAc(b1-3)Gal(b1-4)GlcNAc(b1-2)Man(a1-3)[Neu5Gc(a2-3)Gal(b1-4)GlcNAc(b1-3)Gal(b1-4)GlcNAc(b1-2)Man(a1-6)]Man(b1-4)GlcNAc(b1-4)GlcNAc
# Outline: as §1
# [15] = target: Neu5Gc(a2-3)Gal(b1-4)[Fuc(a1-3)]GlcNAc
# Outline: as §1
# [16] = target: Neu5Gc(a2-6)Gal(b1-4)GlcNAc
# Outline: as §1
# Neu5Gc(a2-6)GalNAc = target: Neu5Gc(a2-6)GalNAc
# Outline: as §1
# [17] = target: Neu5Gc(a2-8)Neu5Ac(a2-3)Gal(b1-4)GlcNAc
# Outline: as §1
# [18] = target: Neu5Gc(a2-8)Neu5Gc(a2-3)Gal(b1-4)GlcNAc
# Outline: as §1
# [19] = target: Neu5Gc(a2-8)Neu5Gc(a2-3)Gal(b1-4)GlcNAc(b1-3)Gal(b1-4)GlcNAc
# Outline: as §1
# [20] = target: Neu5Gc(a2-8)Neu5Gc(a2-6)Gal(b1-4)GlcNAc
# Outline: as §1
# [21] = target: Neu5Gc(b2-6)Gal(b1-4)GlcNAc
# Outline: as §1
binder,measurement,setting,value
PkBDPgamma (Plasmodium knowlesi) (protein) SAINQIFLQNNVMDKCNDKRKRGERDWDCPTEKDVCIPDRRYQLCMMEITNLVDTDTHFHSDIIFRKSYSRRRLIYDVGGRGDLLLKKYNNVYSEDLCKDIKWSLQDFGDIIMGTDMEGIGYSLVVQNNLRSIFGTGTSAELDRKKWWNDHKKDIWKAMILSVKEKNRYSAWNCKEDVQIKVEPQIYRWIREWGRDYMSEFREQRRKLNEKCEDKLYYSTMLICTLPPCNNACKSYDEWITGKKKQWDVLSTKFSSVKKAQKIETENIARAYDILKQELNGFNEVTFENEINKRDKLYNYFCVCIVQEARKNTQENVKNVGSGVESKAPSSNPINEAVKSSSGEGKVQEDSAHRSVNEGEGKSSTNEADPGSQPGAAASGGGSGGGTGGGVDLAPQMLRELQETNAALQDVRELLRQQVKEITFLKNTVMECDACGGPLDRNLPPLAPLGPTGGWSHPQFEK,glycan array binding signal (z-score),[1],-0.324
same,glycan array binding signal (z-score),[2],-0.453
same,glycan array binding signal (z-score),[3],-0.052
same,glycan array binding signal (z-score),[4],-0.246
same,glycan array binding signal (z-score),[5],0.102
same,glycan array binding signal (z-score),[6],-0.44
same,glycan array binding signal (z-score),[7],-0.195
same,glycan array binding signal (z-score),Neu5Ac(b2-6)GalNAc,-0.319
same,glycan array binding signal (z-score),[8],-0.168
same,glycan array binding signal (z-score),[9],-0.299
same,glycan array binding signal (z-score),[10],-0.31
same,glycan array binding signal (z-score),[11],-0.03
same,glycan array binding signal (z-score),[12],0.268
same,glycan array binding signal (z-score),Neu5Gc(a2-3)Gal(b1-4)Glc,-0.201
same,glycan array binding signal (z-score),[13],-0.478
same,glycan array binding signal (z-score),[14],20.7
same,glycan array binding signal (z-score),[15],0.241
same,glycan array binding signal (z-score),[16],-0.113
same,glycan array binding signal (z-score),Neu5Gc(a2-6)GalNAc,-0.36
same,glycan array binding signal (z-score),[17],-0.479
same,glycan array binding signal (z-score),[18],-0.297
same,glycan array binding signal (z-score),[19],0.22
same,glycan array binding signal (z-score),[20],0.062
same,glycan array binding signal (z-score),[21],-0.003
